Measured values from the supplement of paper PMC11417369.
The other results are listed elsewhere or left out.

tested on: PF3D7_0420300 AP2 domain 1 (GST-tagged); experiment: gcPBM binding intensity (ln(normalized median fluorescence intensity)); higher = stronger DNA binding
Procedure, shortened: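 Alexa488 anti-GST antibody, scanned at 488 nm, detected GST-tagged P. falciparum DNA-binding domains that had been expressed in E. coli and incubated for 1 h on an Agilent 4 × 180k array. The array carried primer-extended double-stranded 36-bp intergenic genomic probes and negative controls. Binding intensity is the highest Masliner-normalised natural-log median intensity across replicate spots of either orientation of each probe.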

Row | Sequence | gcPBM binding intensity (ln)
1 | AAAAAAAAAAGAAACACACACATATATATATAGAAT [CACACA_site1777] | 10.1
2 | CATACCTTTTAATGTACACACATTTCTTTTTTGTTA [CACACA_site892] | 9.73
3 | AATATATATACTATAACACACATACACCCAAAAAAA [CACACA_site4453] | 9.79
4 | TTATATGGATATACAGTGCATATATACATATAAGTG | 9.15
5 | TATATGTATTTGTATACACACAAATGTATATATTTA [CACACA_site1265] | 9.35
6 | ATGTATTAAAATTTATGTACTTATATATAAATATAT [XGTACX_site1025] | 9.23
7 | TATAAACATAATATTTAACACACATGAAGATGTATA [CACACA_site8252] | 9.31
8 | TATTTTGTTTTAAAAGTACACACTTTTAATTAGATT [CACACA_site1180] | 9.12
9 | ATAACAAAATGAAGAGTGCATTACCAAGTGGGTAAA [GTGCAC_site9450] | 9.52
10 | ATATTTAAGGCGTGTATGCACACGACTATTCCGTAT [CACACA_site1080] | 9.26
11 | TTAATTTGTTCTTACACACACATATAAATATATTTA [CACACA_site6676] | 9.82
12 | ATGATACTAAAAAATTGTACATATAACAAAAGGTAT [XGTACX_site2527] | 9.47
13 | CATATATTTTGAAACACACACATATATAATATACAT [CACACA_site1158] | 9.76
14 | TTTGTATAATACATGTGTACGTATTTTTATATAAAT [XGTACX_site8656] | 9.26
15 | TTATCATTATATAGTTGTACATATTTATTTATAAAA [XGTACX_site2310] | 9.07
16 | AGAACTAAAAGAACATGTACATAAATTCTAAATAAT [XGTACX_site4084] | 9.27
17 | ACATAAATAAATTAATGTACATATATATTTGTATAT [XGTACX_site3160] | 9.26
18 | TATATATATATATATACACACACACCCATATATATA [CACACA_site8812] | 9.94
19 | TTTTTTTTTTTTTCAAGTACATATATATATATATAA [XGTACX_site2098] | 9
20 | TTTTTATATGTTAAGTGTACGTTTACATTTTATACT [XGTACX_site3485] | 9.24
21 | ATAAACATGGAAATGTATTAAAAGCAAGTATATAAA [XGTACX_negctrl_site516] | 9.47
22 | TAAATTATAACGTGCACACATATTTAAAATGAAATG [CACACA_site2820] | 9.41
23 | TGTTGTTACAGATATACACACATATATATATTATAT [CACACA_site5342] | 9.52

Row | Sequence | gcPBM binding intensity (ln)
24 | TTGGGTGCATATATTTGTACACATTATTTCTATTTT [XGTACX_site3688] | 9.34
25 | AAAAAAAATTTCTTCACACATAAATAAATAAATAAA [CACACA_site4841] | 8.93
26 | TGCATTTATATCTTCACACATATATATATATATATA [CACACA_site4516] | 9.45
27 | ATGTAATAAAATAATTGTACAATGTAACTAATTTTT [XGTACX_site2871] | 9.36
28 | ATTAAAAATTCAATTGCACACGCACATATTTTAATA [CACACA_site8618] | 9.22
29 | ATATGTATATATACATGTACATATTTTTCCTTTCTT [XGTACX_site149] | 9.33
30 | AAATGTAAATTTATCCGTACATATATATATTTATAT [XGTACX_site7024] | 9.25
31 | AAAAAAAAAAAAATATATATATATATATATATATAT [GTGCAC_negctrl_site212] | 8.76
32 | AAAAAAAAAAATTAAAGTACAAAAATATTAAAAATA [XGTACX_site6517] | 9.19
33 | TATACATACATTAGACGTACACATTTTACCTACACC [XGTACX_site3586] | 9.48
34 | TATTATGTATGTATATGTACGTATCTTATTTTATTT [XGTACX_site5008] | 9.52
35 | TTTTTTGTATTTTTCACACACACATAAGTAAACAAT [CACACA_site1900] | 9.88
36 | AAATTATTATATATATGTACGTATAATGTATTTTGT [XGTACX_site2903] | 9.38
37 | AAATATAGAATACATGTGCACATAATATATATATAT | 9.49
38 | AATACAATTTATAACACACACACAAGAATACCTATA [CACACA_site6705] | 10.3
39 | TTTGTATCTATATATTGTACGAATTACTTTCATTTA [XGTACX_site4785] | 9.26
40 | TCTTTTTAAGGGATTTTTTTTTTTTTTTTAAAAAGA [CACACA_negctrl_site1274] | 8.64
41 | ATATATATATACATATGTACATATATATTTATACAT [XGTACX_site2463] | 9.26
42 | TACACAGACGGACACACACACACACTAGAAAAAAAA [CACACA_site4435] | 10
43 | AATATAATATAATGCACACATAAAAAAAAAAAAATC [CACACA_site1303] | 9.74
44 | GCTAAACAATAGTTTGCACACAATTTAAATATATAT [CACACA_site193] | 9.28
45 | AATGCACTATTTAAAAGTACACATAAGAAAAGCATA [XGTACX_site1739] | 9.42
